Data from PubChem BioAssay AID1240 (Sanford-Burnham Center for Chemical Genomics, 2008).
The whole screen tested about 50,000 compounds, of which about 800 (1.6%) showed an effect of 50% or more. Some of the results follow.

Target: Bcl-2-like protein 10 (Homo sapiens) (UniProt Q9HD36)
Test: TR3 peptide-Bcl-B binding displacers, biochemical primary FP assay, phenotype converters (AID 1240);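 further: 0% = Bcl-B with tracer peptide and DMSO and 100% = tracer peptide lacking Bcl-B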
Details: GST-Bcl-B / FITC-TR3 peptide fluorescence polarization; stronger effect = higher value; compound at 3.75 mg/L

UniProt Q9HD36, sequence (Q9HD36 whole entry, looked up): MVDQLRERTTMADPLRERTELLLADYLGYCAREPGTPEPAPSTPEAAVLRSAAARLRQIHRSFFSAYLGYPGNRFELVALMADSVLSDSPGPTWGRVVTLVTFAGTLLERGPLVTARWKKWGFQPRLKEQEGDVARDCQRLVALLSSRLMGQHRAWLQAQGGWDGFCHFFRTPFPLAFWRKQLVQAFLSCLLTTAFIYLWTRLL

SMILES	displacement
COc1ccc(OC)c(NC(=O)CN(c2ccc(OC)cc2OC)S(C)(=O)=O)c1	4.5%
CN(C)c1ccc(C(=O)N2CCN(c3ccc(F)cc3)CC2)cc1	4.9%
Cc1ccccc1OCC(=O)Nc1cccc(-c2nc3ncccc3o2)c1	3%
CCc1c(C#N)c(N)nc2sc(C(=O)c3cccs3)c(N)c12	4.2%
CC(C)(CO)NC(=O)COc1ccc(Cl)cc1Cl	10.2%
O=C(Nc1ccc(-c2nc3ccccc3[nH]2)cc1)c1ccc(Br)o1	-9%
O=C1CC(N2CCN(c3ccccn3)CC2)C(=O)N1c1cc(Cl)cc(Cl)c1 (configuration not stated)	7.1%
CCN(CC)C(=O)c1sc(NC(=O)c2ccc(OC)cc2)c(C(=O)OC)c1C	-7.2%
CCCc1cc(=O)oc2cc(OCc3ccc(Cl)cc3)ccc12	-5.5%
O=C(O)c1cc(NC(=O)c2ccc3c(c2)C(=O)N(CC2CCCO2)C3=O)cc(C(=O)O)c1 (configuration not stated)	3.7%
COc1cc(/C=N\NC(=O)c2ccc(Br)cc2)ccc1OCc1ccccc1	6.4%
Cc1nc2ccccc2c2nc3ccccc3n12	14.9%
COc1ccc(CCNC(=O)c2ccc(Cl)c(Cl)c2)cc1OC	6%
O=C(NCCc1ccc(Cl)cc1)C(=O)Nc1nccs1	13.8%
CCNC(=S)N(Cc1ccc(Cl)cc1)C1CC(=O)N(c2ccccc2)C1=O (configuration not stated)	-10.1%
O=C(Nc1nnc(CSCc2ccccc2F)s1)C1CCCCC1	-8.3%
O=C(CC(C(=O)O)C1CCCO1)NCc1ccccc1 (configuration not stated)	5.2%
Cc1ccc(C2CC(C(F)(F)F)n3ncc(C(=O)N4CCSCC4)c3N2)cc1 (configuration not stated)	7.1%
CCOC(=O)C1=CN(c2ccc(C)c(C)c2)C=C(C(=O)OCC)C1c1ccc(OC)cc1	2.4%
COc1ccc(/C=C2\SC(=O)N(c3c(C)n(C)n(-c4ccccc4)c3=O)C2=O)cc1	12.6%
COC(=O)c1cc(C(=O)Nc2cc(Cl)ccc2OC)cc([N+](=O)[O-])c1	7%
N#CC(C#N)=C1C(=O)Nc2ccc(Br)cc21	-12%

SMILES	displacement
N#CSCCCCCOc1ccc(I)cc1	-1.3%
CCC(=O)Nc1ccc(NC(=O)c2ccc(OC)cc2)cc1	6.4%
COc1cccc(C(=O)NNC(=O)CCCOc2ccc(Cl)cc2Cl)c1	0.7%
CC(=O)c1ccc(NC(=O)C2CC(=O)N(c3ccc(F)cc3)C2)cc1 (configuration not stated)	13%
CC1=NN(c2ccc(C)c(C)c2)C(=O)/C1=C/c1ccc([N+](=O)[O-])o1	12.1%
O=[N+]([O-])c1ccc(S(=O)(=O)Nc2ccccc2CO)cc1	-0.6%
Cc1cc(NC(=O)c2cc(I)ccc2Cl)ccc1NC(=O)c1ccccc1	-0.6%
O=C(NCCNS(=O)(=O)c1ccccc1)c1c(O)c2ccccc2oc1=O	4.9%
O=C(O)C1(P(=O)(c2ccccc2)c2ccccc2)CCC1	0%
N/C(=N\OC(=O)/C=C/c1ccccc1)c1cccnc1	-11.5%
CCCN1C(=O)c2ccccc2NC1c1ccc(C)cc1 (configuration not stated)	14.7%
COc1ccc(OC)c(/C=C2\C(=O)NC(=O)N(c3ccccc3)C2=O)c1	-1.7%
O=C1NC(=O)N(c2cccc(Br)c2)C(=O)/C1=C/c1ccccc1Cl	1.5%
Cc1ccc(OCCn2c(SCC(N)=O)nc3ccccc32)cc1	-6.4%
CCc1ccccc1NC(=O)C(C#N)=C1CCCCCC1	1.1%
CCOC(=O)C1=C(C)N=c2s/c(=C\c3ccc(NC(C)=O)cc3)c(=O)n2C1c1ccc(OC)c(OC)c1 (configuration not stated)	88.9%
O=C(NCCO)/C(=C\c1cccc(Br)c1)NC(=O)c1ccccc1	-1%
COc1ccc(C(=O)Oc2ccc([N+](=O)[O-])cc2)cc1S(=O)(=O)N1CCOCC1	-8.4%
CCCN(/C=N/S(=O)(=O)c1ccc(Cl)cc1)CCC	8%
O=C(CSc1nnc(-c2cccs2)n1-c1ccccc1)c1ccccc1	1.2%
COC(=O)c1cc(NC(=O)C(C)(C)C)cc(C(=O)OC)c1	4.4%
COc1ccc(C2=C/C(=C\c3ccc(OC(C)=O)c(OC)c3)C(=O)O2)cc1	39.4%

SMILES	displacement
COc1ccc(OC)c(NC(=O)CN(Cc2ccccc2)S(=O)(=O)c2ccccc2)c1	21.7%
CC1=C(C(=O)Nc2ccc(C)cc2)C(c2ccccc2F)NC(=O)N1 (configuration not stated)	-5.3%
Nc1ncn(-c2ccc(Cl)cc2)c1C(=O)c1ccc([N+](=O)[O-])cc1	-8.3%
CCc1ccc(C2NC(=O)c3c(sc4c3CCCC4)N2)cc1 (configuration not stated)	-13.8%
COc1ccc(NC(=O)C2CC2)c(OC)c1	1%
CC(=O)N1CCc2ccccc2C1CN1C(=O)c2ccccc2C1=O (configuration not stated)	-0.4%
COc1ccc(C(=O)N2CCN(Cc3cccc(OC)c3OC)CC2)cc1	-7.2%
O=C1C=C(Nc2ccccc2)C(=O)N1c1ccccc1Cl	12.8%
CCn1c(SCC(=O)c2ccccc2)nc2ccccc2c1=O	-8%
Cc1c(C(=O)OC(C)C)sc(NC(=O)C(C)(C)C)c1C(=O)OC(C)C	-7.9%
CC(C)(C)c1cc(CCC(=O)NN2C(=O)CSC2=S)cc(C(C)(C)C)c1O	-8.5%
O=C(Nc1ccccc1C(=O)N1CCOCC1)c1ccco1	7.7%
CCn1c(C)[n+](CCO)c2cc(Cl)c(Cl)cc21	21.4%
O=C(Nc1cc(Oc2ccccc2)cc([N+](=O)[O-])c1)c1ccco1	-8.4%
O=C1NC(=O)C(=Cc2ccc(OS(=O)(=O)c3ccc([N+](=O)[O-])cc3)cc2)C(=O)N1	-4.5%
Cn1c2c(c(=O)n(C)c1=O)C(c1ccc(OCc3ccccc3)cc1)C1=C(N2)c2ccccc2C1=O (configuration not stated)	-1.7%
CC(C)=C1C2C=CC1C1C(=O)NC(=O)C21 (configuration not stated)	6.9%
O=C(CSc1ncccn1)Nc1ccc(Cl)cc1	-5.6%
O=C1CC(NCc2ccc3c(c2)OCO3)C(=O)N1c1ccc(Br)cc1 (configuration not stated)	1%
COC(=O)c1[nH]cnc1C(=O)Nc1ccc(C)cc1C(=O)c1ccccc1	-1.6%
O=C1C=CC(=NS(=O)(=O)c2ccc3ccccc3c2)C=C1	-14.7%
COc1cccc(C(=O)NNC(N)=O)c1	-7.4%

SMILES	displacement
COc1cc(OC)cc(C(=O)Nc2ccc3oc(-c4ccc(I)cc4)nc3c2)c1	-5.8%
COc1ccccc1/C=N/N=C1/NC(=O)C(Cc2ccc(Cl)cc2Cl)S1 (configuration not stated)	9.8%
COc1ccc(OC)c(NC(=S)NC(NC(=O)c2ccccc2Br)C(Cl)(Cl)Cl)c1 (configuration not stated)	-3.2%
O=C1NN(c2ccccc2)C(=O)/C1=C/c1ccc(F)cc1	-8%
COC(=O)C1=C(C)N(C)C(C)=C(C(=O)OC)C1c1ccc(SC)cc1	-5.8%
Fc1ccc(OCCOc2ncnc3ccccc23)cc1	-6%
O=C(CSc1nnc(-c2ccco2)n1-c1ccccc1)Nc1cccc([N+](=O)[O-])c1	-18.5%
COc1ccc2c(=O)cc(C(F)(F)C(F)F)oc2c1	11.9%
CCCCNc1c([N+](=O)[O-])c(=O)n(C)c2ccccc12	2.9%
Cc1ccc(N2C(=O)CC(N(C)Cc3ccccc3)C2=O)c(C)c1 (configuration not stated)	0.2%
CN=C(Nc1cccc(Cl)c1)SC1CC(=O)N(c2ccccc2F)C1=O (configuration not stated)	-10.1%
O=[N+]([O-])c1ccc(N2CCN(S(=O)(=O)c3ccc(Cl)cc3)CC2)cc1NCc1ccccc1	5.7%
CCOc1ccc(/C=C2\SC(=S)N(CCC(=O)Nc3ccccn3)C2=O)cc1	-4.3%
COc1ccc(C(NC(=O)CC(C)C)NC(=O)CC(C)C)cc1OC	-1.1%
Cc1ccccc1C(=O)Nc1cccc(NC(=O)c2ccc([N+](=O)[O-])o2)c1	13.1%
O=C(Nc1ccc(Cc2ccncc2)cc1)Nc1cc(F)c(F)cc1Cl	-4.2%
CCOc1ccccc1N/C=C(/C#N)c1nc(-c2ccc(OC)c(OC)c2)cs1	-7.4%
CCOc1ccc(N/C=C\C(=O)c2ccc3c(c2)OCO3)c([N+](=O)[O-])c1	12%
COc1cc(C=C2C(=O)NC(=O)NC2=O)ccc1OCCOc1ccc(C)cc1	32.2%
COc1ccc(NC(=O)C2(c3ccccc3)CC2(Cl)Cl)cc1 (configuration not stated)	8.1%
CCOc1cc(Br)cc(/C=C2/SC(=S)N(c3ccccc3)C2=O)c1O	-35.5%
O=C(NCC1(c2ccccc2)CCOCC1)c1cccc(Br)c1	-2.8%

SMILES	displacement
Cc1cc([N+](=O)[O-])ccc1-c1ccc(C(=O)Nc2ccc(-c3nc4ccccc4o3)c(O)c2)o1	10.8%
COc1ccc(-c2nnc(NC(=O)c3cccs3)s2)cc1	8.7%
COc1ccc(S(=O)(=O)NCC(C)C)cc1Br	6.2%
Cc1[nH]n(-c2ccc(Cl)c(C(=O)O)c2)c(=O)c1/C=C1\C=c2ccccc2=NC1=O	15%
COc1ccc(C(=O)N2CCN(S(C)(=O)=O)CC2)cc1OC	-4.9%
COc1cc(/C=C2/SC(=S)N(CCC(=O)O)C2=O)cc(Br)c1O	-13.7%
Cc1ccc(-n2c(C)cc(/C=C3\NC(=O)NC3=O)c2C)cc1C	11.1%
CC1=C(C(=O)Nc2ccccc2)C(c2ccc(C)o2)N2C(=O)CSC2=N1 (configuration not stated)	-40.8%
Cc1ccc(-c2nc3cccnc3o2)cc1NC(=O)COc1ccc(C(C)(C)C)cc1	-1.7%
CCOc1ccc(C(=O)Nc2ccc(-c3nc4ncccc4o3)cc2)cc1Cl	7%
O=C(Nc1ccc(-c2nc3ccccc3s2)cc1)c1cc2ccccc2o1	-6.9%
CC1CCc2c(sc(NC(=O)Nc3cccc(Cl)c3)c2C#N)C1 (configuration not stated)	1.7%
COc1ccccc1/C=C1\SC(=S)N(NC(=O)c2ccc([N+](=O)[O-])cc2)C1=O	12.7%
CCOC(=O)c1ccc2[nH]c(C)cc(=O)c2c1	-2%
COc1ccc(NC(=O)COc2ccc(C)cc2C)c([N+](=O)[O-])c1	-1.7%
Cc1cc(C)nc(NN2C(=O)/C(=C/c3ccc(O)cc3)SC2=S)n1	-73.2%
O=c1[nH]c(-c2ccc(O)c([N+](=O)[O-])c2)nc2sc3c(c12)CCCC3	-30.1%
COc1ccc(C2Nc3ccc(C(=O)c4ccccc4)cc3NC3=C2C(=O)CC(C)(C)C3)cc1 (configuration not stated)	19%
COc1ccccc1N(CC(=O)NCCSC)S(=O)(=O)c1ccccc1	-0.5%
